# Laboratory results from the supplement of paper PMC3334620.
# Whole data set: some 33,000 sequences, median “E-score (-0.5 to 0.5)” near -0.032, cut for the highest 2% near 0.36. The list shows a part of the results.
# Target: T1, Sko1 (UniProt Q02100)
# T1 sequence: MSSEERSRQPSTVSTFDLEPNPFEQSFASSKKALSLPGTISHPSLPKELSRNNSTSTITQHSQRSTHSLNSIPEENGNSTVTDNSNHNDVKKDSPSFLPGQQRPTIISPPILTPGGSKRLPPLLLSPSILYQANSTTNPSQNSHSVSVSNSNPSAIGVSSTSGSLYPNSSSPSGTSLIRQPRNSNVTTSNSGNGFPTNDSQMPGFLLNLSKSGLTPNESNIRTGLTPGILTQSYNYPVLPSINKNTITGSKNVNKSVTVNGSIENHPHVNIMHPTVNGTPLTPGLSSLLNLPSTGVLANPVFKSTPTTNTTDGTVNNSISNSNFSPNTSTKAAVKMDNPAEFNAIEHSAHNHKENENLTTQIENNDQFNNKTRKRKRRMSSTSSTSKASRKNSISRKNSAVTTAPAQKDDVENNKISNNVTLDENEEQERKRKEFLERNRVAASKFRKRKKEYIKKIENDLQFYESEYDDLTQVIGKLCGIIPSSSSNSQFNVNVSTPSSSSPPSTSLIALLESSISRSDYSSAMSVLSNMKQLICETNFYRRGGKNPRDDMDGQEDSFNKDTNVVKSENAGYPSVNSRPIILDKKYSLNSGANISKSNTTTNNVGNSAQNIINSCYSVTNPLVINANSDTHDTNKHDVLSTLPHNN
# Assay: PBM E-score (8-mer binding enrichment) (E-score (-0.5 to 0.5)); higher = stronger / more preferred TF binding; most listed sequences are background and not binding sites
# Conditions: protein concentration: 200 nM; construct: GST-full length
# Method: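 Universal 'all 10-mer' protein binding microarrays (Agilent AMADID 015681) probed with GST-tagged S. cerevisiae TFs (full-length or DBD) made by in vitro transcription/translation (PURExpress), about 100-200 nM. Bound TF was detected with fluorescent anti-GST. Each ungapped 8-mer (which stands for itself and its reverse complement) is scored by the PBM enrichment score (E-score), a modified Wilcoxon-Mann-Whitney statistic from -0.5 to +0.5, computed with the Universal PBM Analysis Suite. Scale: above 0.35 generally sequence-specific binding.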
row,Sequence,PBM E-score
1,CGCGTCCG,-0.0181
2,ACGATGAC,0.336
3,ACTGCACG,-0.0427
4,CGCTCGTC,0.133
5,GATGATTA,0.15
6,ACGTTTCC,0.294
7,CGTCCGCA,0.00964
8,CGCTCCAA,-0.0541
9,CGGAGTTA,-0.203
10,GTTCTAAA,-0.105
11,TCGAGGAA,-0.172
12,CCCCGAGA,-0.23
13,GCCTACAA,-0.169
14,AACACTTG,-0.118
15,CACACTTA,0.183
16,GCAACGTA,0.399
17,GAGGAGTA,0.2
18,AGTGGCTG,-0.228
19,AGGCCTGA,-0.144
20,CGATCCAA,-0.177
21,ATCGAATG,0.166
22,CTATGTAA,0.19
23,AGCACTAT,-0.0166
24,CTAAAAGA,0.0123
25,ACAACATC,0.153

row,Sequence,PBM E-score
1,TATATTGA,0.172
2,ATCCGATC,0.0509
3,GCTTATCA,-0.0774
4,AATAACGC,0.106
5,GGTGAACC,-0.061
6,CTCGTGGC,-0.219
7,CCCCGATA,-0.169
8,AGTCTATC,-0.188
9,CCCTTAAG,-0.0627
10,AACGGCCT,-0.304
11,CCTAAGTA,-0.0946
12,CCGGTGTA,-0.27
13,AGTTAGAA,-0.0939
14,ACTCGTAC,0.084
15,GGCTAACA,-0.0118
16,CCAACTGG,-0.12
17,ATTAACTA,0.216
18,ATACCGAC,0.00626
19,ATTAATGG,0.214
20,ATATACCA,0.0399
21,GCTGAGTA,-0.306
22,TAGGTGGA,0.0623
23,CCATATAG,-0.184
24,GGATCATA,-0.086
25,AAATATAC,0.182

row,Sequence,PBM E-score
1,AACTAGTT,-0.0308
2,GTTCTCCA,-0.0853
3,CGACCAAA,0.102
4,CGTATGGA,0.245
5,CAGACGAC,-0.123
6,ACGTTAGA,0.265
7,CAAACGCC,-0.106
8,AAGTCACA,0.0509
9,GGAATGAC,0.3
10,GGTTCCCA,-0.172
11,CGCCGTTA,-0.0842
12,CCCAACAG,-0.301
13,GTCACGAC,0.251
14,ATAACCAC,0.0684
15,ATTGGAGC,-0.08
16,AAATCAGT,-0.00401
17,ATGTCTAA,0.198
18,AGTGATAC,0.107
19,GAACAGGA,0.0482
20,CCTCCACA,-0.0717
21,CAAGTTGC,0.12
22,GTGCCTTA,-0.0625
23,AGTACCTC,-0.132
24,GTTTAACA,0.0101
25,AGGTCGAT,0.0361

row,Sequence,PBM E-score
1,GGCTTCCC,-0.29
2,GATACGAC,0.166
3,ACTCTTAG,-0.175
4,GATCTCCA,-0.0784
5,GAACCAAC,0.0178
6,ATCCGCCA,-0.115
7,GATATCGA,0.0983
8,ACGTTCAT,0.282
9,GACACCCA,-0.174
10,GGGCCAGA,-0.278
11,AAGAATCT,-0.0424
12,AAACCGTC,-0.0343
13,ACGTAAAC,0.459
14,TACTTCGA,0.161
15,GGGCTAGA,-0.235
16,AATGCTAT,0.106
17,ACTCCTCC,-0.19
18,AGGCATGA,0.153
19,TCGAAAAA,0.148
20,AAGCCTCA,-0.252
21,TCTCCTAA,0.141
22,AACAGCGC,-0.119
23,GGTTCCAA,-0.0929
24,ACAACTAG,-0.00944
25,CAAATGCC,-0.166

row,Sequence,PBM E-score
1,CCGAGCGA,-0.146
2,GGGATAAC,-0.0341
3,AATAGGCT,0.0268
4,AAGACCCG,-0.105
5,CTAATTGC,0.104
6,CAGCGCCC,-0.192
7,CCTGTTGC,-0.125
8,GTCGGCAA,-0.215
9,GGGTCTCA,-0.297
10,AGCTGCAA,-0.152
11,ACCGACTA,-0.22
12,GACCCCGA,-0.198
13,GGGTGGAC,-0.23
14,CGATTTGA,-0.0299
15,GAACTCCC,-0.1
16,ACTTTATC,0.0288
17,GGGCCTCA,-0.189
18,GGAGCTTA,-0.135
19,AATAGGTC,0.128
20,ACCGATTA,-0.0449
21,AATAGCGA,0.137
22,GCCCGGAC,-0.355
23,AAACCACT,0.00368
24,CTGATTGA,-0.0403
25,GAACAGGC,-0.252

row,Sequence,PBM E-score
1,CCTCCGAA,-0.243
2,AATACCTG,-0.0743
3,ACTCGCTA,-0.136
4,GCACTTCC,-0.231
5,AATGAGGC,-0.169
6,GCAATCAC,0.0788
7,ATTCCCAC,-0.0577
8,AAAGGCGG,-0.0355
9,TAGGCAAA,-0.0439
10,ACATTTAA,0.165
11,GCCCGCAC,-0.0286
12,ACGATATG,0.303
13,ATGTACGC,0.254
14,CTGACTCC,-0.23
15,GCACGGTA,-0.0606
16,CTCTTAAC,-0.0409
17,ACGAGAAC,0.165
18,ACCTGATC,-0.128
19,TATCAAGA,0.173
20,AACGCTTG,-0.111
21,AAACCCTC,-0.024
22,TGTATAAA,0.132
23,ACAGAACC,-0.146
24,TACTATAA,0.109
25,CAGCAACC,-0.127

row,Sequence,PBM E-score
1,CGAGAGCG,-0.206
2,AACGATGA,0.143
3,GTTTACGA,0.289
4,ACCCATAT,0.0692
5,ACTCGGAG,-0.16
6,CCGCTCCG,-0.269
7,CAGGCGCG,-0.154
8,AGTTCCTA,0.209
9,GCCATGGC,-0.182
10,ACAGAAGC,-0.0522
11,CTCCCAGA,-0.225
12,AGCACCCA,-0.174
13,GAGGGGGA,-0.155
14,ATACGAAC,0.256
15,GCCTGGGA,-0.241
16,ACTGATCG,-0.108
17,CATCGAAC,0.00604
18,ACGGCAGA,-0.0578
19,AAACTACA,0.109
20,ATCATGTG,0.118
21,AACTTAGT,-0.138
22,ATAATGCG,0.19
